Whole data set: some 33,000 sequences, median “E-score (-0.5 to 0.5)” near -0.035, cut for the highest 2% near 0.34. The list shows a part of the results.
These sequences were tested against T1, Mot3 (UniProt P54785) (assay: PBM E-score (8-mer binding enrichment) (E-score (-0.5 to 0.5)); higher = stronger / more preferred TF binding; most listed sequences are background and not binding sites). Settings: protein concentration: 200 nM; construct: GST-full length.
T1 sequence: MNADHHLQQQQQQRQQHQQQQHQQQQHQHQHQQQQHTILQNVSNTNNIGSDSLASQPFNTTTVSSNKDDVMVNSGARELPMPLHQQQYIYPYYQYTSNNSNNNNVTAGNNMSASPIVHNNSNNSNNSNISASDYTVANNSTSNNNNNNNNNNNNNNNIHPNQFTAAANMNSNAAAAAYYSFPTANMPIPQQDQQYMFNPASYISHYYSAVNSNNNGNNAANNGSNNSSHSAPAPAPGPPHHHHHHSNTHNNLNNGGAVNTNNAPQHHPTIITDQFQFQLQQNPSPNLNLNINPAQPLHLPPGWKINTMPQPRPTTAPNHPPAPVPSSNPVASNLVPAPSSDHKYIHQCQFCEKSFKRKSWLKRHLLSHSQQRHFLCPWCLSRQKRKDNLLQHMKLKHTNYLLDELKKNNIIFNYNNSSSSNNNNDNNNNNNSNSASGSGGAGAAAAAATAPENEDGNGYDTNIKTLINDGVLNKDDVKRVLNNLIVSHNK
Method: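 Universal 'all 10-mer' protein binding microarrays (Agilent AMADID 015681) probed with GST-tagged S. cerevisiae TFs (full-length or DBD) made by in vitro transcription/translation (PURExpress), about 100-200 nM. Bound TF was detected with fluorescent anti-GST. Each ungapped 8-mer (which stands for itself and its reverse complement) is scored by the PBM enrichment score (E-score), a modified Wilcoxon-Mann-Whitney statistic from -0.5 to +0.5, computed with the Universal PBM Analysis Suite. Scale: above 0.35 generally sequence-specific binding.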

Sequence	PBM E-score
CTTGAATA	0.0439
GGAGGAGA	-0.167
CAAATTGC	0.00715
ACGCTGCT	0.0819
GAACTAGA	0.052
CCTCCCAA	-0.153
CTCCGATA	-0.16
AGTTGTAA	0.211
ATTTTATA	0.121
ACTAGCAC	-0.244
CCGGTGAC	-0.211
ATGGTGAG	-0.0265
GACCAGTC	-0.175
AGGACAGA	-0.0828
AGCAATGG	-0.204
GCTTCTAC	-0.0179
TTGTCAAA	0.108
GTACTCAC	-0.102
CCTTCAAA	0.115
ATTCCCAG	-0.0785
AAGTAAAG	0.131
TAGGTAGA	0.0477
ATATGCTA	-0.0819
GCAAATAA	0.104
CGTCTCTA	-0.0824

Sequence	PBM E-score
AACCTTCG	0.0434
AACCGTCA	-0.113
CTGGCGAC	-0.215
GGGTCCGA	-0.135
TAACGGTA	-0.055
TACTTTGA	0.0853
CCTGATAA	0.138
CCCCTAAA	-0.27
GGATCGCA	-0.0912
CCAGGAGA	-0.238
CATGGAGA	0.0809
GTATTAAA	0.222
CAGGCTGC	-0.05
CCTAACAA	0.249
CATCGCTC	-0.304
CGGAAAGC	-0.151
CATAGATA	0.0267
TTCGCGAA	0.24
TCGATACA	0.111
ATCTGCCC	-0.0711
AAACTTAG	0.0943
GTTTTGAA	0.24
GGCGGTAA	0.0108
AATGCGGG	0.0272
CAGACATC	-0.16

Sequence	PBM E-score
ATGGAAGC	-0.191
ATTAGGAG	0.0663
ACAGTGAT	-0.0444
CCGATAAC	0.038
GGCGTACC	0.00915
AAGGTTCC	0.239
CCAAGTGA	-0.149
ATCGCACC	-0.117
CGTGATCA	-0.171
AGGAACTA	0.38
ATGCCAGG	-0.0858
ATAGGAAG	-0.0193
TCCACGGA	-0.0381
ATATGCCC	-0.182
AATCGTTA	0.108
AGATGTAA	0.272
CCCCTGAG	-0.231
CATACAGG	0.307
ATATCAAG	-0.0867
ATAAAGCA	-0.12
CGGTCCAA	-0.165
ACTGAGGG	-0.196
CTATCATC	0.0533
ACTATGGG	-0.168
ACTTGGTC	-0.0834

Sequence	PBM E-score
CCGCCACG	-0.179
CACCGTTC	0.0905
GTTTTCAA	0.236
GGAGCATA	-0.05
AAGCATAC	0.108
ACTGCCAC	-0.303
AGTCGTCC	-0.197
GGCGCTGA	-0.104
ACATGTCG	0.246
ATCATGGC	-0.282
TAGTGCCA	0.0115
ACGCTAGA	-0.168
ACCGAGGA	-0.111
CTTCACTA	-0.0387
AAGCAGTC	-0.0406
TATCCTAA	-0.0124
ACACCGGC	0.00195
CGACTGTA	-0.0244
AGTATGTA	0.289
TAGTAAAA	0.19
ATCAAGTA	0.107
ACAATCTG	0.0425
CCATACGA	-0.193
AAAATGCG	0.00885
CAAGGCGC	0.191

Sequence	PBM E-score
CTGAGATA	-0.00922
ACTGAGCT	-0.299
AAAGACTT	0.077
GTCAATGA	0.00322
GGGAAAGA	-0.0956
GGGTGCAA	-0.353
TAAAGATA	0.141
AAGTTTAC	0.235
CTATGGAG	-0.271
TATTCTGA	0.0534
AGACTGGG	-0.244
ACACCGGG	-0.101
ATAGTTTA	0.0652
CTAGACGA	-0.148
GCTTGAGA	-0.24
AGTACGGC	-0.0993
ATACCTAC	0.156
GAATTGCA	0.065
CCAGCTCC	-0.176
AGACTGCG	-0.225
ACTCGAAC	-0.0481
GATGACCC	-0.0211
GTCCGGCA	-0.104
ATTAAAAA	0.162
AGGCAACC	0.483

Sequence	PBM E-score
GTCTGAAC	-0.217
AAGAATTC	-0.0576
ACGTTTTC	0.159
AAGGCGAA	-0.0356
CTCGCACC	-0.156
TCGTGAGA	-0.179
AACCAGGC	0.0998
TCAAGTCA	0.0447
AAAGGCGC	0.371
ATGGGGGC	-0.0992
CAGTCCCC	-0.411
GGTCTGTA	0.0401
AGAGAGCG	-0.159
CACCAAGC	-0.0401
ATATGGGG	-0.253
AAGATACA	0.244
AAGAAGTA	-0.0249
CAACGGAA	0.103
GTACGGCA	0.0141
GCGGACCC	-0.296
CACAAATG	0.15
ACTAGACG	0.0561
CCAGTGAC	-0.133
ACCGGCAT	-0.239
ATATGAAC	0.134

Sequence	PBM E-score
CAGATTGG	-0.274
GTCACGGA	-0.0824
AGATTGCT	-0.22
CATCACAC	0.0832
CACCATCC	-0.0507
GATTCGAA	0.0361
GCCGATCA	-0.111
ACTAATTA	0.242
AGATACAC	0.138
ACCGGGCT	-0.136
AGTGATGC	-0.1
GTTGAATA	0.137
CATGCAGG	0.0359
CTTCGCCC	-0.201
GAACAATC	0.0225
AAATCAGC	0.0829
CCAACCGG	-0.275
AGTTCCTC	0.0435
TGGACCAA	-0.071
ATAGACAC	0.178
AATGGCTA	-0.0483
AGCCTCCT	-0.136
